Test results reported in the supplement of paper PMC12009370.
This is one part of the list. Single values are uncertain, as repeats are few or missing.

Each molecule was assayed on IMR-32 (assay: drug sensitivity score (DSS) in combination with SL-176 (DSS (score)); neuroblastoma lines; SL-176 and GSK2830371 are WIP1 inhibitors; higher = more cytotoxic; extreme values may be limits of the assay). Conditions: 72 h; co-treatment: SL-176 11.2 uM (IC25 in IMR-32).
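Note: cells in 384-well plates, luminescence read-out, each screening drug at five concentrations, DSS derived from the fitted concentration-response curve combining IC50 with minimum and maximum inhibition.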

SMILES	drug sensitivity score
S=c1[nH]cnc2nc[nH]c12 [Mercaptopurine]	8
CC[C@H](C)C(=O)O[C@H]1C[C@H](O)C=C2C=C[C@H](C)[C@H](CC[C@@H](O)C[C@@H](O)CC(=O)O)[C@H]21 [Pravastatin]	0
NC(=S)N/N=C/c1ncccc1N [Triapine]	9.4
CC[C@H](Nc1ncnc2[nH]cnc12)c1nc2cccc(F)c2c(=O)n1-c1ccccc1 [Idelalisib]	0
CC1(C)CNc2cc(NC(=O)c3cccnc3NCc3ccncc3)ccc21 [Motesanib]	3.8
Cc1cnc(-c2ccccc2C(C)C)nc1NCc1ccc(-n2ccnn2)cc1	1.8
Cc1ccc(-n2nc(C(C)(C)C)cc2NC(=O)Nc2ccc(OCCN3CCOCC3)c3ccccc23)cc1 [Doramapimod]	8.1
COc1cc2nccc(Oc3ccc(NC(=O)Nc4cc(C)on4)c(Cl)c3)c2cc1OC [Tivozanib]	8.3
O=c1sn(-c2cccc3ccccc23)c(=O)n1Cc1ccccc1 [Tideglusib]	0
CC(C)(O)CC(=O)NCCn1ccc2ncnc(Nc3ccc(Oc4cccc(C(F)(F)F)c4)c(Cl)c3)c21	0
Cc1c(-c2c(-c3ccc(F)o3)sc3ncnc(O[C@H](Cc4ccccc4OCc4ccnn4CC(F)(F)F)C(=O)O)c23)ccc(OCCN2CCN(C)CC2)c1Cl	5.7
Cn1cc(-c2ccc(F)c(C(F)(F)F)c2)nc1C1CCN(c2ncnc3[nH]ncc23)CC1	0
Nc1nc(NC2CC2)cc(-c2cccc(Cl)c2Cl)n1	14.2
CNC(=O)c1cc(COc2nnc(Nc3ccc(Cl)cc3)c3ccoc23)ccn1 [Telatinib]	0
Nc1ncnc2c1c(COc1cccc(Cl)c1)nn2C1CCOCC1	0
CCOc1ccn(-c2ccc(F)cc2)c(=O)c1C(=O)Nc1ccc(Oc2ccnc(N)c2Cl)c(F)c1	0
NC(=O)c1cccc(-c2cccc(OC(=O)NC3CCCCC3)c2)c1	0

SMILES	drug sensitivity score
CN(C(=O)c1ccc(F)cc1C(F)(F)F)C1CCN(c2nnc(-c3ccnn3C)c3ccccc23)CC1 [Taladegib]	0
C[C@]1(c2nc3c(C(N)=O)cccc3[nH]2)CCCN1 [Veliparib]	7
Nc1ncn([C@@H]2O[C@H](CO)[C@@H](O)[C@H]2O)c(=O)n1 [Azacitidine]	5.2
O=C(O)c1ccc(CN2CCC(CN[C@@H]3C[C@H]3c3ccccc3)CC2)cc1	0
CN(C)Cc1c(C(=O)NCCOc2ccc(C(=O)NO)cc2)oc2ccccc12 [Abexinostat]	21.5
CCCCNc1ncc(C(=O)NCc2ccc(-n3ccnc3)cc2)c(NC2CCC(O)CC2)n1 (centres undefined)	0
CN(C)C(=O)c1cc2cnc(Nc3ccc(N4CCNCC4)cn3)nc2n1C1CCCC1 [Ribociclib]	4.7
Cc1ccc(NS(=O)(=O)c2cccc(C#N)c2)c2[nH]cc(C#N)c12	23.8
COc1cccc2c1C(=O)c1c(O)c3c(c(O)c1C2=O)C[C@@](O)(/C(CO)=N/NC(=O)CCCCCN1C(=O)C=CC1=O)C[C@@H]3O[C@H]1C[C@H](N)[C@H](O)[C@H](C)O1 [Aldoxorubicin]	22.6
NC1(c2ccc(-c3nc4ccn5c(=O)[nH]nc5c4cc3-c3ccccc3)cc2)CCC1	1.9
O=C(/C=C/c1cccnc1)NCCCCC1CCN(C(=O)c2ccccc2)CC1 [Daporinad]	45.9
CCN(CC)CCNC(=O)c1c(C)[nH]c(/C=C2\C(=O)Nc3ccc(F)cc32)c1C [Sunitinib]	0.9
CNCc1ccc(-c2[nH]c3cc(F)cc4c3c2CCNC4=O)cc1 [Rucaparib]	13.2
Cc1cc(F)c(C(=O)Nc2cccc(-c3nncn3C(C)C)n2)cc1-n1cnc(C2CC2)c1 [Selonsertib]	0
C[C@@H]1CN(Cc2ccc(F)cc2)[C@@H](C)CN1C(=O)c1cc2c(C(=O)C(=O)N(C)C)cn(C)c2cc1Cl [Talmapimod]	1
CC(=O)O[C@H]1C(=O)[C@@]2(C)[C@H]([C@H](OC(=O)c3ccccc3)[C@]3(O)C[C@H](OC(=O)[C@H](O)[C@@H](NC(=O)c4ccccc4)c4ccccc4)C(C)=C1C3(C)C)[C@]1(OC(C)=O)CO[C@@H]1C[C@@H]2O [Paclitaxel]	39.5
CN1CC[C@H](c2c(O)cc(O)c3c(=O)cc(-c4ccccc4Cl)oc23)[C@H](O)C1 [Alvocidib]	20.4
